Data published in the BET-seq Pho4 binding data (Le et al. 2018).
The other results are listed elsewhere or left out. The energies were worked out here from pooled read counts, against the library average; single values are noisy.

Molecular target: T1, Pho4 (S. cerevisiae) (UniProt P07270)
T1 sequence: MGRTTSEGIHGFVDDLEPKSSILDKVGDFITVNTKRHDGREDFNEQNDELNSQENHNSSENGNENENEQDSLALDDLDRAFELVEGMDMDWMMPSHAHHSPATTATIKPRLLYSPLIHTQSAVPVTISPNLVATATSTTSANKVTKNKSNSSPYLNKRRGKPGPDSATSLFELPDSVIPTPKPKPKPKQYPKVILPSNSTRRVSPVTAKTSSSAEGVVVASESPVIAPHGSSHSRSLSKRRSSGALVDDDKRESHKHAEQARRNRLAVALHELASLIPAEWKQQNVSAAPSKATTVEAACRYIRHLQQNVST
Experiment: relative binding free energy (BET-seq); higher = weaker binding
Details: reference: library average

Sequence	relative binding free energy [kcal/mol]
GTTTGCACGTGACTAT	0.26
GGTAGCACGTGGAGCT	-0.01
TGGCGCACGTGTGGTC	-0.2
CGCTGCACGTGTTTGT	-0.04
GCGGTCACGTGTGCGT	0.12
AAATTCACGTGTGGGG	0.28
GTGATCACGTGGCAGT	0.09
GAAGTCACGTGGGAGA	0.16
AGTGACACGTGTAAAT	0.15
TTGAGCACGTGTTTAA	-0.08
GAGTGCACGTGGGTTG	-0.08
ATGTGCACGTGAATAT	0.08
ATTTGCACGTGAATAA	0.36
TATTACACGTGGTGGG	0.05
AGCTGCACGTGTGTAA	0.09
CATGTCACGTGTTTGA	0.02
AATTGCACGTGATGAG	0.15
ACTTTCACGTGGATAG	0.33
ATGGGCACGTGCGTTG	-0.11
CGAGGCACGTGTGTCG	-0.02
TGATCCACGTGCGGGG	0.02
AATGGCACGTGGTGAT	-0.05
TATTTCACGTGGTCTA	0.36
ATAAACACGTGGGGCT	-0.16
TTGATCACGTGGATTA	0.03

Sequence	relative binding free energy [kcal/mol]
TTGGTCACGTGTTATT	0.08
AGCTTCACGTGTCGTT	0.22
GAAGCCACGTGATGTT	0.24
CGGGTCACGTGGAGCA	0.06
TTGTACACGTGATCTG	0.28
TTGGTCACGTGCTTAA	-0.05
TCAAGCACGTGTTGGA	-0.07
TTAGGCACGTGTTCTT	-0.05
GGGTGCACGTGTATGT	0.04
TTGTGCACGTGCTATA	-0.09
GGAAGCACGTGTACGT	-0.05
GTTATCACGTGTTTCG	0.16
ATGTTCACGTGTTACT	0.24
AGTGTCACGTGGGAAA	-0.01
TTAGACACGTGGGCAT	0.02
TGTGACACGTGCGGCG	0
GAAGGCACGTGCTTGG	-0.05
CGGGCCACGTGATGGT	-0.01
TAGGACACGTGCGTGG	-0.12
ATAGTCACGTGGTCTG	0
CTTCTCACGTGTGAGT	0.21
AGTGACACGTGGGGAG	-0.13
TAATTCACGTGGTTTC	0.26
TGGTGCACGTGATAGA	0.05
GGGATCACGTGGGCCT	0.14

Sequence	relative binding free energy [kcal/mol]
GTAGGCACGTGATCAT	0.06
TTACTCACGTGTGGAT	0.21
TTTTGCACGTGAGCTC	0.23
AGACGCACGTGCGGGT	-0.3
GGCTGCACGTGGGATT	-0.05
AGTTTCACGTGTGCGT	0.29
TCCGTCACGTGTGTTG	0.16
TACTGCACGTGCGGGG	0
TAGTTCACGTGACAGA	0.57
AATTGCACGTGGATGC	0.01
TTTGCCACGTGGGTAA	-0.26
GGGCGCACGTGGTCAG	-0.17
AGCGGCACGTGCTTAG	0.01
GTCGCCACGTGGAGTG	-0.02
GTGCACACGTGGGGAC	0.08
TCTTTCACGTGAATGT	0.38
GCAGGCACGTGGTATG	-0.2
TGTACCACGTGTTGTC	0.05
TATATCACGTGAAGAT	0.35
GAAGGCACGTGTGTGT	-0.04
TGGTGCACGTGTTCGA	0.06
ATGGGCACGTGCGTAA	-0.11
TAGCTCACGTGGGAGA	0.19
